From article PMC3738564
These are yes or no findings as the source states them, for the method shown. In cells and extracts the contact can be indirect. Some binding calls cover weakened binding; strength is not graded here.

Chains of the proteins cited; added tags and fusions are not shown.
UniProt Q8CC27: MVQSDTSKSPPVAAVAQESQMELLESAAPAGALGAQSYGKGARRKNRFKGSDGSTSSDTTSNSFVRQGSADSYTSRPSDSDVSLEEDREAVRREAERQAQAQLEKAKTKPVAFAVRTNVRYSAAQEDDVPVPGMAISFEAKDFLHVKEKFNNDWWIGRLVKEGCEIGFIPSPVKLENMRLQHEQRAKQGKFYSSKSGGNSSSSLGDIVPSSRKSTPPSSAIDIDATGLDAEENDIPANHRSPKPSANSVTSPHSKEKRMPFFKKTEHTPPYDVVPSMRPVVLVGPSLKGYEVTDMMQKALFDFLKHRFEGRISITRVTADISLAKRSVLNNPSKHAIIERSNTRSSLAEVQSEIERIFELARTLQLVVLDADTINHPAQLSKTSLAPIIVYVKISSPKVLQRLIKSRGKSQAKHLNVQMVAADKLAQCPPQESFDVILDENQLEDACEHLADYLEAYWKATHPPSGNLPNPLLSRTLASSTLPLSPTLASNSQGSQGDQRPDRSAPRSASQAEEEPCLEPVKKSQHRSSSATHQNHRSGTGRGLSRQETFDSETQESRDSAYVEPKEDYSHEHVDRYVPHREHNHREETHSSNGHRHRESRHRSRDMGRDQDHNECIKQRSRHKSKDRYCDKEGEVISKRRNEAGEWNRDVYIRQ
UniProt Q9Z0J4: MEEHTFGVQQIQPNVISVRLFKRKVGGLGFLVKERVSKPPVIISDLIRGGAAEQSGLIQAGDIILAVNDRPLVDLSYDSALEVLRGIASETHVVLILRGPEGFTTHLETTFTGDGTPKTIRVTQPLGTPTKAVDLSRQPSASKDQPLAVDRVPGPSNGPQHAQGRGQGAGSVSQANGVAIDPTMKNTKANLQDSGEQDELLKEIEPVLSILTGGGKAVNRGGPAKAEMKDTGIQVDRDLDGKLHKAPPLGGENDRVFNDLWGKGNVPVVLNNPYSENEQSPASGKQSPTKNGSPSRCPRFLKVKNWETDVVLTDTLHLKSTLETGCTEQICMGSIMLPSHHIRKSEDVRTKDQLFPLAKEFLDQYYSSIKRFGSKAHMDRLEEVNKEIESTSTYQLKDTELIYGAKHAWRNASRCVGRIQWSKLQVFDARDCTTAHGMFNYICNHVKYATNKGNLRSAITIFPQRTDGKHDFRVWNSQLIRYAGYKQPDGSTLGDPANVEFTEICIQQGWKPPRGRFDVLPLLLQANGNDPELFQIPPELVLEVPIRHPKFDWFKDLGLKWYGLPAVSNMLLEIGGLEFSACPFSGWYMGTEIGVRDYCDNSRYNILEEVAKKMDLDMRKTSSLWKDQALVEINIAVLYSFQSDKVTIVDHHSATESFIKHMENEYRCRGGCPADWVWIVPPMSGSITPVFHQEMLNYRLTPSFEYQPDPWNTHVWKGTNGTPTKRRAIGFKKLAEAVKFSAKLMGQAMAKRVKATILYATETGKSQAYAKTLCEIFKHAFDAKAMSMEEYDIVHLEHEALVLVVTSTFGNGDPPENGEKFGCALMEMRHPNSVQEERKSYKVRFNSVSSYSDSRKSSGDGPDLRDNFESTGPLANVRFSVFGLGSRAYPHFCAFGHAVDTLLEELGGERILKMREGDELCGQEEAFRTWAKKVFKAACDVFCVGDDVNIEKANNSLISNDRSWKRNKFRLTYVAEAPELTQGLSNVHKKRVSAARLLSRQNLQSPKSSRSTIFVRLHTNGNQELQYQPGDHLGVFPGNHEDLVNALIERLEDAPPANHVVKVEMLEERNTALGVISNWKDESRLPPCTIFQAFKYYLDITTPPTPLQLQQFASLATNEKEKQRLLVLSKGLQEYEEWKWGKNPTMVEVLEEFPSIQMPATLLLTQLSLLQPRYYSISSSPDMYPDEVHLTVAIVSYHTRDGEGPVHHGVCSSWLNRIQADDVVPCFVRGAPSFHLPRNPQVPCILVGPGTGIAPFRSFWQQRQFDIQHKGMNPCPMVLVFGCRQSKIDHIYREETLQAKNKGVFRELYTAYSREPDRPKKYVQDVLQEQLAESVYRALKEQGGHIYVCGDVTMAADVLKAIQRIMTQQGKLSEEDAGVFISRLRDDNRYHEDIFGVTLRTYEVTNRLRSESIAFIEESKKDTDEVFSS
UniProt E9Q6R7: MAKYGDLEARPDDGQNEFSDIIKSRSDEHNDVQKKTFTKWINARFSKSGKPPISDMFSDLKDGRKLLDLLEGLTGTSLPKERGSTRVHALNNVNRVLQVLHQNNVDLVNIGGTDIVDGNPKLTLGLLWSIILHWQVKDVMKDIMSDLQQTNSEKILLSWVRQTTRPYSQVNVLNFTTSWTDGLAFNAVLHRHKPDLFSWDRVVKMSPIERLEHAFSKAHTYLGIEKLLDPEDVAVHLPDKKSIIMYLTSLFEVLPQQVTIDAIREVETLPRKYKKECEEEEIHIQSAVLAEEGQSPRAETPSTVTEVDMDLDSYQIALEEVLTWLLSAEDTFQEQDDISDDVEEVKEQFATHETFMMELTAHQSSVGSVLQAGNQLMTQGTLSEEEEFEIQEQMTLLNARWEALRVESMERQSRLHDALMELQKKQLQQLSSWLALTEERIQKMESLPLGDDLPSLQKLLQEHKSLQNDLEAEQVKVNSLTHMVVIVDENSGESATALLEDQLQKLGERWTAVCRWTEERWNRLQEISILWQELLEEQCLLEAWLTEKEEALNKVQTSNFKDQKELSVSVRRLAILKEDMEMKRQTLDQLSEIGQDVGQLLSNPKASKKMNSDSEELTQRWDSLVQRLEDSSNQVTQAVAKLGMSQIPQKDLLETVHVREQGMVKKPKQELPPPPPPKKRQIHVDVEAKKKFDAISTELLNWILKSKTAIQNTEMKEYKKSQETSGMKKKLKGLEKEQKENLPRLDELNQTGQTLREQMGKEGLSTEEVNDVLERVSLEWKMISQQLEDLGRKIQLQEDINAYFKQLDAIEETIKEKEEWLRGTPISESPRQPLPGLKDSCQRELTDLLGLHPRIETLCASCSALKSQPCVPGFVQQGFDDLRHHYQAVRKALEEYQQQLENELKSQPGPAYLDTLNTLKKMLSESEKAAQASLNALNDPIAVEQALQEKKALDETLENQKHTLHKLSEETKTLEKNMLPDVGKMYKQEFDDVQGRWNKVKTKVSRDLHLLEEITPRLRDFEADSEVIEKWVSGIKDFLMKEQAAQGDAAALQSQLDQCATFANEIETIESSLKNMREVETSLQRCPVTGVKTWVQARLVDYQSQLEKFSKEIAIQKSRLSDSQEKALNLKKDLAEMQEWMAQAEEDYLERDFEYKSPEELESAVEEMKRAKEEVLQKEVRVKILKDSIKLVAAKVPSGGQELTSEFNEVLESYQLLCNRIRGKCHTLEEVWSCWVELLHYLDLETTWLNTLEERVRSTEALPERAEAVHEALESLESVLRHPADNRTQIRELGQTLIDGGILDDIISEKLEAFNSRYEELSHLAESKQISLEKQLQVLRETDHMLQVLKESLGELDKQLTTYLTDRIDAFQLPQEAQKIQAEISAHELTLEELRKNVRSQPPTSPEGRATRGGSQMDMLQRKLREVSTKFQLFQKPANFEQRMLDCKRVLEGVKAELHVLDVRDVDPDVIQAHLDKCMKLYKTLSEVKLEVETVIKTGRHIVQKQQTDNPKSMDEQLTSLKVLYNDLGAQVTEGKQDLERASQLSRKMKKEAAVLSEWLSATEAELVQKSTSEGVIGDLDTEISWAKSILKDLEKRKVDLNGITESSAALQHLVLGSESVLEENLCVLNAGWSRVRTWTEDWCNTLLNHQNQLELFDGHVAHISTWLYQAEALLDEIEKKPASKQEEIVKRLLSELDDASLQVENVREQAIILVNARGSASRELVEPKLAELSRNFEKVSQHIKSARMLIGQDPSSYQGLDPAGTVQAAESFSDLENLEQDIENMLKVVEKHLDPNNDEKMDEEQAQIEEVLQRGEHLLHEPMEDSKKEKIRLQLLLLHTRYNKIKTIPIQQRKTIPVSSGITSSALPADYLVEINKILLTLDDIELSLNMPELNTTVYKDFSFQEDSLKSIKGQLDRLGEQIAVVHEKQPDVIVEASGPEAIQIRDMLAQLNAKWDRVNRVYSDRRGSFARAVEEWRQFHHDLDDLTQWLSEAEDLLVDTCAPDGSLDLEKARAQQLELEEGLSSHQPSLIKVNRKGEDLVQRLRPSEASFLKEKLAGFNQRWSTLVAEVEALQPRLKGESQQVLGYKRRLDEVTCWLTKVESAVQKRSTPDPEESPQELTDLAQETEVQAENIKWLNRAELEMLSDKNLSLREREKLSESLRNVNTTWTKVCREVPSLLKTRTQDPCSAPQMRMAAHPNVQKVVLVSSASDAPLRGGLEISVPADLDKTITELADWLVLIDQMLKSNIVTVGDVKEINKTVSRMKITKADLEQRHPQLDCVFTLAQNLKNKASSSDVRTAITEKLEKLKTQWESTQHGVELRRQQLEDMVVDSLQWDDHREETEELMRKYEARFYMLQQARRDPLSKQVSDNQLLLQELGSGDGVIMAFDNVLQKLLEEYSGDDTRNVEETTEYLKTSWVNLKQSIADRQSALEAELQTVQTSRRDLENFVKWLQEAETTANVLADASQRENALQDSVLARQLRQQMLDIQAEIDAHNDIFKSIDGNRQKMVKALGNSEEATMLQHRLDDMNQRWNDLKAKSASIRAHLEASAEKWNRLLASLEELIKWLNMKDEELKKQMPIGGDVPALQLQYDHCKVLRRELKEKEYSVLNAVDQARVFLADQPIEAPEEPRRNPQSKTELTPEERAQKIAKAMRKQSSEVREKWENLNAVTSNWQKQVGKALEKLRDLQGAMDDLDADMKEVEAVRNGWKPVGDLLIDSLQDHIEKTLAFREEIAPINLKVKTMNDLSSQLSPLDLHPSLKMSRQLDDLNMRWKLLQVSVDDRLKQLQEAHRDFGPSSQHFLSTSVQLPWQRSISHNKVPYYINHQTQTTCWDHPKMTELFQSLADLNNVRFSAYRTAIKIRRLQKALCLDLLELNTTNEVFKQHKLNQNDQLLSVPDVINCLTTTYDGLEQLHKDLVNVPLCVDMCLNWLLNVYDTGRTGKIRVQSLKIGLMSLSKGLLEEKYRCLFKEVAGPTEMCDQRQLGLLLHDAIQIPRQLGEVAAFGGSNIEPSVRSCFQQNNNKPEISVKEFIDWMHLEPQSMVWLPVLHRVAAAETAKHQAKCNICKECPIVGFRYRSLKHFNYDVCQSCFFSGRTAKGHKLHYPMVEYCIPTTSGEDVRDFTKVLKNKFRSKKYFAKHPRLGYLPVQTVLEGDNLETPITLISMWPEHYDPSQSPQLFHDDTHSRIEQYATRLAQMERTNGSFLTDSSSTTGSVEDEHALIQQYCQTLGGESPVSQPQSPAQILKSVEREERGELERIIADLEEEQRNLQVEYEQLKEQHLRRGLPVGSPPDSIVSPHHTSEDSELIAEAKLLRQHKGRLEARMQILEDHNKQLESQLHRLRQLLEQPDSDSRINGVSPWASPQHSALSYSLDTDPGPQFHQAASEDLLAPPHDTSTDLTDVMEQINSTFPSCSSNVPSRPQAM

Experiments:
[1] = molecular target: β2-regulatory subunit of voltage gated calcium channels (Cavβ2) (mouse (endogenous in skeletal muscle)) (UniProt Q8CC27); test: co-IP; reverse immunoprecipitation with an antibody to Cavβ2 from wild type quadriceps lysate (1% digitonin, 0.05% NP-40); control antibody MW8; Western blot
[2] = molecular target: T1, α-dystroglycan (mouse (endogenous in skeletal muscle)) (UniProt Q62165); test: pull-down; α-dystroglycan held by its carbohydrates on wheat germ agglutinin agarose beads; wild type mouse skeletal muscle solubilised in PBS pH 7.5 with 0.5% Triton X-100; 4 °C overnight; Western blot
T1 sequence (chain, highly glycosylated; carbohydrate moieties bound by wheat germ agglutinin): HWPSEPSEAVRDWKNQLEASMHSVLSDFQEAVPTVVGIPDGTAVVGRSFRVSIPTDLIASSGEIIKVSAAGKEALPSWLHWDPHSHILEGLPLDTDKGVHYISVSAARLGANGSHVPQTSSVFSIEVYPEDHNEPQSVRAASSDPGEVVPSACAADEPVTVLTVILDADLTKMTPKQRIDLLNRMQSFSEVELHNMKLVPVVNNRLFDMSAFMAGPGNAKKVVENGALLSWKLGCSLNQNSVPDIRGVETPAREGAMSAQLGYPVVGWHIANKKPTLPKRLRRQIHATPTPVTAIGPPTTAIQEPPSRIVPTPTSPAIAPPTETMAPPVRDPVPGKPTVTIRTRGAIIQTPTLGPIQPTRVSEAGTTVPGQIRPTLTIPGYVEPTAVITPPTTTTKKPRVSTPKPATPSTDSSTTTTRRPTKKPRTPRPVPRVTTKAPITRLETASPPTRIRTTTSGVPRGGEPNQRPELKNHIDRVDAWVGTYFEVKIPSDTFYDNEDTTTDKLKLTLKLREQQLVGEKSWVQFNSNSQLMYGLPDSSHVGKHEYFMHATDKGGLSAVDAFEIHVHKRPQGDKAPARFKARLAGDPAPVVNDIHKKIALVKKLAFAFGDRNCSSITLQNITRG

[3] = molecular target: T2, β-dystroglycan (mouse (endogenous in skeletal muscle)) (UniProt Q62165); test: co-IP; β-dystroglycan precipitated with MANDAG2 on protein G beads from wild type mouse quadriceps lysate (1% digitonin, 0.05% NP-40; 1 mg protein); Western blot; also done on mdx and mdx/Utrn-/- lysates
T2 sequence: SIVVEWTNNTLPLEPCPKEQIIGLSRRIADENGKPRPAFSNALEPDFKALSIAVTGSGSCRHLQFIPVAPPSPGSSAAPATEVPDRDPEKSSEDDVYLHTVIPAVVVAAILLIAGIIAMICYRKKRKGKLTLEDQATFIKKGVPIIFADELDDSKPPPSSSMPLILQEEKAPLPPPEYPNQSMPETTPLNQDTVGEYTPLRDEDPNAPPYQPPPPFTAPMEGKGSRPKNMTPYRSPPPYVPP

[4] = molecular target: T2, β-dystroglycan (mouse (endogenous in skeletal muscle)); test: co-IP; β-dystroglycan precipitated with MANDAG2 from mdx (dystrophin-deficient) mouse quadriceps lysate (1% digitonin, 0.05% NP-40); Western blot
[5] = molecular target: T3, Polymerase I and transcript release factor (Cavin-1) (mouse) (UniProt O54724); test: co-IP; reverse immunoprecipitation with an antibody to Cavin-1 from wild type quadriceps lysate (1% digitonin, 0.05% NP-40); control Rabbit-anti-Goat IgG; Western blot
T3 sequence: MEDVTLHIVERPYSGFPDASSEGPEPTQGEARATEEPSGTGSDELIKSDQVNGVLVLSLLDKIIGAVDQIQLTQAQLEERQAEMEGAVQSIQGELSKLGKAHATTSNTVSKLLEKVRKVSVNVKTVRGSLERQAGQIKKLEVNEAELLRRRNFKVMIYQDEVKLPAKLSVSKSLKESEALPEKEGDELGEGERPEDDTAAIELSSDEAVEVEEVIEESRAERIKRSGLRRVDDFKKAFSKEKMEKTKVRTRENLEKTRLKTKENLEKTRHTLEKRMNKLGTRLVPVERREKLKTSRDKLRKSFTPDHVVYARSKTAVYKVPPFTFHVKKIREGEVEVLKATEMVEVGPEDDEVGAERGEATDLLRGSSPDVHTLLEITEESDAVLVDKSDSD

[6] = molecular target: full length (427 kDa) dystrophin (mouse (endogenous in skeletal muscle)) (UniProt P11531); test: co-IP; dystrophin precipitated with MANDYS1 on protein G beads from wild type mouse quadriceps lysate (1% digitonin, 0.05% NP-40); Western blot

## full length (427 kDa) dystrophin (from UniProt P11531 1-3678)
[1]
  binding: no binding
[2]
  binding: binds
[3]
  binding: binds

## neuronal nitric oxide synthase (from UniProt Q9Z0J4 1-1429) (enzyme)
[4]
  binding: no binding (condition: in mdx muscle (no dystrophin))
[3]
  binding: binds

## utrophin (from UniProt E9Q6R7 1-3430)
[1]
  binding: no binding
[5]
  binding: no binding
[3]
  binding: binds

## β2-regulatory subunit of voltage gated calcium channels (Cavβ2) (from UniProt Q8CC27 1-655)
[6]
  binding: no binding
[5]
  binding: no binding
[3]
  binding: binds
